Results from the supplement of paper PMC11283458.
The list shows a part of the results. Many values rest on one well or one pass, so single values are uncertain.

Tests used:
[1] = system: Mef2d microexon dual Nano/Firefly luciferase splicing reporter in Neuro-2a cells; assay: B-score of Firefly/Nano luminescence ratio, V1 Mef2d microexon reporter (B-score (plate-normalised)); higher = more Mef2d microexon inclusion; details: 24 h
[2] = system: Mef2d microexon dual Nano/Firefly luciferase splicing reporter in Neuro-2a cells; assay: B-score of Nano/Firefly luminescence ratio, V2 Mef2d microexon reporter (B-score (plate-normalised)); higher = more Mef2d microexon inclusion; details: 24 h
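Wherever B-score of Nano/Firefly luminescence ratio, V2 Mef2d microexon reporter is given: compounds at 4 µM (PKI library 0.5 µM) on Dox-inducible N2A Flp-In cells with PEST-tagged luciferases, 384-well plates, B-score from per-plate median-polish residual over median absolute residual.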

SMILES | B-score [1] | B-score [2]
CCCCCCCCCC(=O)Nc1nc2c(s1)Cc1ccccc1-2 (4 µM) | 3.37 | 3.38
CS/C(Nc1ccccc1)=C(/C#N)C(=O)c1cc(-c2ccccc2)c(C(F)(F)F)s1 (4 µM) | 2.54 | 5.29
CC(C)c1ccc(C(=O)c2cccs2)c(SCCCCCCCCN(C)C)n1 (4 µM) | -3.32 | -5.79
CCOC(=O)c1c(C)c(C(=O)Nc2cc(Cl)ccc2OC)c(C)n1C (4 µM) | -10 | -10.3
N#Cc1c(Cl)c(Cl)c(Cl)c(Cl)c1C#N (4 µM) | -17.7 | 6.26
Cc1ccc(CNc2ccc3nnc(-c4ccccc4)n3n2)cc1 (4 µM) | 9.28 | 2.36
CCS(=O)(=O)Nc1ccc2c(c1)/C(=C(/Nc1ccc(CN3CCCCC3)cc1)c1ccccc1)C(=O)N2 [Hesperadin] (0.5 µM) | -1.65 | -7.21
N#CC(C#N)=NNc1ccc2c(c1)OCCO2 (4 µM) | -2.32 | -5.33
O=C(Nc1cccc(Cl)c1)Nc1ccc(Sc2ccccc2)nc1Sc1ccccc1 (4 µM) | 1.73 | 6.79
CC(=O)Nc1ccc(Nc2ncc(C(F)(F)F)cc2Cl)cc1 (4 µM) | -4.87 | -9.52
C[S+]([O-])c1sc(C#N)c2c1C(=O)CC(C)(C)C2 (stereo unspecified) (4 µM) | 2.55 | 2.23
COc1cc(OC)c(/C=C2/C(=O)Nc3ccccc32)c(OC)c1 (4 µM) | -11.4 | -11.3
CSc1sc(C(=O)Nc2cc(C(F)(F)F)cc(C(F)(F)F)c2)c(-c2ccc(Cl)cc2)c1C#N (4 µM) | -4.64 | -5.04
CC1=CC(C)(C)Nc2ccc(OC(=O)CCC3CCCCC3)cc21 (4 µM) | -3.14 | -6.6
Cc1nn(CCC(N)=NOC(=O)c2cc(Cl)cc(Cl)c2)c(C)c1Oc1ccc(Cl)cc1.O.O (4 µM) | 3.54 | 4.28
CC(C)/N=c1\cc2n(-c3ccc(Cl)cc3)c3ccccc3nc-2cc1Nc1ccc(Cl)cc1 [Clofazimine] (4 µM) | 7.8 | 2.7
COc1cccc2c1C(=O)c1c(O)c3c(c(O)c1C2=O)C[C@@](O)(C(=O)CO)C[C@@H]3O[C@H]1C[C@H](N)[C@@H](O)[C@H](C)O1 (4 µM) | -16.9 | -20.4
O=C(Nc1ccc(SC(F)(F)F)cc1)ON=C1CC2CCCC(C1)N2Cc1cccs1 (4 µM) | 13.5 | 2.38
CCc1ccc(N2C(=O)C(Cl)=C(Nc3cc(OC)ccc3OC)C2=O)cc1 (4 µM) | 3.44 | 2.88

SMILES | B-score [1] | B-score [2]
CNC(=O)Nc1ccc(-c2nc(N3CC4CCC(C3)O4)c3cnn(C4CCC5(CC4)OCCO5)c3n2)cc1 (0.5 µM) | -2.54 | -8.87
Cc1ccc(S(=O)(=O)N/N=C/c2ccc3ccccc3c2O)cc1 (4 µM) | 3.91 | 37.8
N/C(=N\OC(=O)CC(c1ccccc1)c1ccccc1)c1ccccc1 (4 µM) | 6.66 | 4.26
Cc1onc(-c2c(Cl)cccc2Cl)c1C(=O)SCC(=O)Nc1ccc(F)cc1 (4 µM) | -3.03 | -3.88
COC(=O)Nc1ccc(-c2nc(N3CCOCC3)c3cnn(C4CCN(C(=O)OC)CC4)c3n2)cc1 (0.5 µM) | -5.53 | -4.42
CN(C)c1ccc(-n2nnnc2SCc2c(F)cccc2Cl)cc1 (4 µM) | -7.76 | -11.8
COC(=O)Nc1nc2cc(C(=O)c3ccc(F)cc3)ccc2[nH]1 (4 µM) | -11 | -14.4
Cc1onc(-c2ccccc2Cl)c1C(=O)N1CCN(c2cccc(Cl)c2)CC1 (4 µM) | -9.62 | -6.18
O=C1C(Cl)=C(Nc2ccccc2)C(=O)c2ccccc21 (4 µM) | 16.5 | 0.089
CC1=C/C(=N/OS(=O)(=O)c2ccc(C)cc2)C(C(C)C)=CC1=O (4 µM) | -1.78 | -4.61
Cc1ccc(S(=O)(=O)Nc2ccc3ncccc3c2)cc1 (4 µM) | 4.22 | 5.29
Cn1cc(-c2cnn3c(N)c(Br)c([C@@H]4CCCNC4)nc23)cn1 (0.5 µM) | -5.07 | -2.58
COc1ccccc1OCCOc1ccccc1OC (4 µM) | -0.236 | 9.51
CCn1c(=O)cc(OCC(=O)Nc2ccc(Cl)cn2)c2ccccc21 (4 µM) | -2 | -4.6
Oc1cc2c(cc1O)CN(C(=S)NCCc1ccc(Cl)cc1)CCC2 [Capsazepine] (4 µM) | -4.11 | -9.25
COc1cc2nc(CN3c4ccccc4CC3C)[nH]c(=O)c2cc1OC (stereo unspecified) (4 µM) | -4.87 | -6.92
NC(=NOC(=O)Nc1cccc(Cl)c1)c1ccc2nonc2c1 (4 µM) | 5.91 | 2.86
N#CCc1ccc(Nc2nc(Nc3cc(C4CCC4)[nH]n3)c3ccccc3n2)cc1 (0.5 µM) | -15.2 | -15.2
CCOc1ccccc1NC(=O)C(NCc1cn2ccccc2n1)c1ccccc1 (stereo unspecified) (4 µM) | -6.89 | -1.31
